Experimental data from patent publication US9314479B2, “Methods and compositions for the disruption of biofilms” (National Jewish Health, priority 2007, dated 2016).
Entries after “also recorded” stand apart in the source; their conditions may differ.

Assays:
[1] = system: neutrophil induced B. Thailandensis biofilm; assay type: cell-based
[2] = system: PA01 biofilms formed in the presence of neutrophils; assay: Crystal violet assay: 10 minute exposure of 24 or 48 hour neutrophil-induced PA01 biofilms to poly(amino acid) and/or DNase; conditions: DNase 33 μg/mL
[3] = system: P. aeruginosa Late CF strain biofilms; assay: Crystal violet assay: 10 minute exposure of neutrophil-induced Late CF strain biofilms to (Asp)260 and/or DNase; assay type: cell-based, Pseudomonas aeruginosa; conditions: (Asp)260 5 μM, DNase 33 μg/mL, 10 minutes at 37° C. in saline
[4] = system: Pseudomonas PAO1 biofilms induced by neutrophils; assay: Crystal violet assay: disruption of 24 hour neutrophil-induced biofilm, removed from neutrophil products and treated in saline for 3 hours; conditions: 3 hours at 37° C.; for disruption of the biofilm, longer (260) versus shorter (74) chain: equimolar concentrations (FIG. 14B: 5 M printed), saline; for disruption of the biofilm (optical density from crystal violet staining): 24 h biofilm washed, in saline
[5] = system: Pseudomonas PAO1 biofilms induced by neutrophils; assay: Crystal violet assay: disruption of 24 hour neutrophil-induced biofilm without removal of neutrophils (overnight culture material present), 3 hours; conditions: 3 hours at 37° C.; for disruption of the biofilm in the presence of overnight culture material, long versus short chain: 74 mer and 260 mer compared
[6] = system: P. aeruginosa PAO1 in the presence of neutrophils; assay: Crystal violet assay: prevention of neutrophil-induced biofilm formation, agent added at time=0, 24 hours; conditions: poly(amino acid) 10 μM added at time=0, 24 hours at 37° C., 1:1000 ratio
P. aeruginosa = assay: Antibiotic potential of the components of the peptide assays (bacteria recovered from pooled wells); assay type: cell-based, Pseudomonas aeruginosa; conditions: tested individually and in combination, data not shown
Method: To quantify the density of biofilms formed under various conditions biofilms were established on a NUNC Tsp plate lid as detailed above. Pegs were rinsed in saline for 2 minutes, then placed in a 96 well round bottom Nunc plate with 150 μL sterile saline, and sonicated twice for 10 minutes in a Fisher FS 110 sonicator (Pittsburgh, Pa.). Test wells were pooled, and serially diluted 10 fold, and 20 μL was plated in triplicate at the 1×10^−3 to 1×10^−6 dilutions onto LB agar for quantization.
The robust activity of poly(R) in the prevention of biofilm formation led to a question of an alternate mechanism of disruption in this system. To address this, the antibiotic potential of all the components of the peptide assays were tested individually and, when appropriate, in combination.
The unexpectedly robust activity of (Arg)74 in the prevention of biofilm formation led to a question of an alternate mechanism of disruption in this system. To address this, the antibiotic potential of all the components used in the peptide assays were tested individually and, when appropriate, in combination. […] While highly cationic proteins can serve as antimicrobials, we are not aware of previous reports of simple poly(amino acids) with this property.

[7] = system: P. aeruginosa Early CF strain biofilms; assay: Crystal violet assay: 10 minute exposure of neutrophil-induced Early CF strain biofilms to (Asp)260 and/or DNase; assay type: cell-based, Pseudomonas aeruginosa; conditions: (Asp)260 5 μM, DNase 33 μg/mL, 10 minutes at 37° C. in saline
[8] = poly(amino acid) 5 μM, 10 minutes at 37° C. in saline

Molecule: polyaspartic acid [(Asp)260]
- disruption of the biofilm (optical density from crystal violet staining) [1]: induced disruption of the biofilm
- reduction in biofilm density, 24 hour biofilm ([2]; 10 minutes, (Asp)260 5 μM): 49%
- disruption of 24 hour biofilm, 10 minute exposure [2, 8]: effectively disrupted 24 hour old biofilms
- disruption of 24 hour Late strain biofilm [3]: effectively disrupted a 24 hour old biofilm
- disruption of 48 hour Late strain biofilm [3]: neither DNase, nor (Asp)260 was effective as a single agent
- disruption of the biofilm, longer (260) versus shorter (74) chain [4]: more effective than the shorter (Asp)74
- disruption of the biofilm, longer (260) versus shorter (74) chain ([4]; listed as poly(D) ~260 mer): exhibited greater disruption of the biofilm than their respective shorter chain form
- disruption of the biofilm (optical density from crystal violet staining) ([4]; poly(amino acid) 5 μM): exhibited a significant disruptive effect
- disruption of the biofilm (optical density from crystal violet staining) ([4]; poly(amino acid) 5 μM, listed as poly(D) ~260 mer): exhibited a disruptive effect

Molecule: polyarginine [(Arg)260]
- disruption of the biofilm in the presence of overnight culture material, long versus short chain [5]: had a significant effect
- disruption of the biofilm, longer (260) versus shorter (74) chain [4]: had a greater effect than (Asp)74; also recorded: more effective then (Arg)74
- disruption of the biofilm, longer (260) versus shorter (74) chain ([4]; listed as poly(R) ~260 mer): exhibited greater disruption of the biofilm than their respective shorter chain form
- disruption of the biofilm (optical density from crystal violet staining) ([4]; poly(amino acid) 5 μM): exhibited a significant disruptive effect
- disruption of the biofilm (optical density from crystal violet staining) ([4]; poly(amino acid) 5 μM, listed as poly(R) ~260 mer): exhibited a disruptive effect

Molecule: NC[C@H]1O[C@H](O[C@H]2[C@H](O)[C@@H](O[C@H]3O[C@H](CO)[C@@H](O)[C@H](N)[C@H]3O)[C@H](N)C[C@@H]2N)[C@H](N)C[C@@H]1O [tobramycin, reference compound]
- disruption of the biofilm by antibiotics ([4]; 8 μg/mL to 1024 μg/mL, 24 h biofilm, listed as Tobramycin): No disruption of the biofilm was observed

Molecule: polyaspartic acid [(Asp)74]
- prevention of biofilm formation ([6]; listed as poly(D) ~75 mer): prevented biofilm formation
- intrinsic antibiotic effect on P. aeruginosa (P. aeruginosa): had no intrinsic antibiotic effect
- disruption of the biofilm in the presence of neutrophils / overnight culture material ([5]; poly(amino acid) 5 μM): failed to disrupt the biofilm
- disruption of the biofilm in the presence of neutrophils / overnight culture material ([5]; poly(amino acid) 10 μM): failed to disrupt the biofilm
- disruption of the biofilm (optical density from crystal violet staining) ([4]; poly(amino acid) 5 μM): exhibited disruption of the biofilm
- disruption of the biofilm (optical density from crystal violet staining) ([4]; poly(amino acid) 10 μM): this effect was significantly greater at 10 μM

Molecule: polyarginine [(Arg)74]
- prevention of biofilm formation ([6]; listed as Poly(R)): more effective at preventing the formation of biofilms
- prevention of biofilm formation ([6]; listed as poly(Arg)): significantly better then poly(Asp)
- intrinsic antibiotic effect on P. aeruginosa (P. aeruginosa): bactericidal
- intrinsic antibiotic effect on P. aeruginosa (P. aeruginosa; listed as poly(R)): bactericidal or bacteriostatic
- disruption of the biofilm in the presence of overnight culture material, long versus short chain [5]: had a significant effect
- disruption of the biofilm in the presence of neutrophils / overnight culture material ([5]; poly(amino acid) 5 μM): small but significant capacity to disrupt the biofilm
- disruption of the biofilm in the presence of neutrophils / overnight culture material ([5]; poly(amino acid) 5 μM, listed as poly(R) ~75 mer): exhibited a dose dependent response
- disruption of the biofilm (optical density from crystal violet staining) ([4]; poly(amino acid) 10 μM): this effect was not significantly greater with 10 μM

B1: DNase: Pulmozyme (DNase) (Genentech) at 1 mg/mL in saline (protein, UniProt P24855 23-282, looked up)
Deoxyribonuclease-1: LKIAAFNIQTFGETKMSNATLVSYIVQILSRYDIALVQEVRDSHLTAVGKLLDNLNQDAPDTYHYVVSEPLGRNSYKERYLFVYRPDQVSAVDSYYYDDGCEPCGNDTFNREPAIVRFFSRFTEVREFAIVPLHAAPGDAVAEIDALYDVYLDVQEKWGLEDVMLMGDFNAGCSYVRPSQWSSIRLWTSPTFQWLIPDSADTTATPTHCAYDRIVVAGMLLRGAVVPDSALPFNFQAAYGLSDQLAQAISDHYPVEVMLK
- disruption of 24 hour biofilm, 10 minute exposure [2, 8]: effectively disrupted 24 hour old biofilms
- disruption of 48 hour biofilm, 10 minute exposure [2, 8]: effective as a single agent
- disruption of 48 hour Early strain biofilm [7]: effective as a single agent
- disruption of 48 hour Late strain biofilm [3]: neither DNase, nor (Asp)260 was effective as a single agent
